Values marked as one replicate rest on one cluster of the flow cell; about a third of the high ones do not repeat.
Tested on: ATP
Assay: switch fluorescence ratio, 500 uM ATP over buffer (Cy3 cluster intensity, sum of 5 cycles each) (fold (ratio)); higher = stronger signal-on switching upon ATP binding; sequences stand for … in TCGTCGGCAGCGTCAGATGTGTATAAGAGACAGTTTTTTTTTTTTTTTTTTTTTTTTT…TC
Conditions: aptamer strand: ATP DNA aptamer (quencher-CACCTGGGGGAGTATTGCGGAGGAAGG + anchor), 100 nM annealed; ATP concentration: 500 uM; one replicate
How it was run: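 Values give the fluorescence ratio for each switch-domain sequence, averaged from per-cluster ratios of summed target-cycle to summed buffer-cycle Cy3 intensity. The Cy3-labelled switching-strand clusters sat on a modified Illumina MiSeq flow-cell, were annealed to 100 nM quencher-labelled ATP aptamer, and were imaged in selection buffer, then after 15 min with 500 uM ATP at 22 °C. Five cycles ran with NaOH stripping and re-annealing between them, and clusters outside 100-1000 RFU were excluded.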
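Note: ATP exposure 15 min at 22 °C before imaging.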

| Sequence | switch fluorescence ratio |
| --- | --- |
| CGTTACGAAA | 1.04 |
| CCCAGGTTCT | 1.88 |
| TTAATATGC | 0.919 |
| CGCCAAACAT | 0.985 |
| CCTAGGGGTA | 1.05 |
| AAGGTGAGT | 1.05 |
| GAGCTAATAA | 1.69 |
| AGTAGTCCCT | 1.03 |
| CAGCGGGTC | 1.03 |
| ACCAGACTAT | 1.02 |
| CGTAATCTTA | 1.01 |
| GTAGTCAGGT | 0.987 |
| TAAGACTG | 1.05 |
| GCCATTGGAT | 0.977 |
| TTTATTTGT | 0.989 |
| CTTTATCGCA | 0.965 |
| TGGCCAGCCT | 1.01 |
| CCCTTTTCGT | 0.999 |
| AATCAGTATA | 1.02 |
| GCGAGTCTGT | 1.04 |
| AGATATTCGA | 1.04 |
| GGGAATTCAT | 0.982 |
| CCGATCTCTG | 1.09 |
| GTATAGTTGT | 0.973 |
| AAATGTATGC | 1.02 |
| TACCAGAAAT | 1.03 |

| Sequence | switch fluorescence ratio |
| --- | --- |
| TTCGTAGAGG | 0.979 |
| GCGCTCTACT | 1.72 |
| AAGGATCGGT | 0.996 |
| ACCAATTAGT | 0.984 |
| CTCGTTTTT | 0.974 |
| GCTCCAGATG | 1.43 |
| GCGCGTCAAT | 1.03 |
| AAGCTAGGGG | 0.974 |
| AAACGCCCCA | 1.05 |
| ATGCACGGTT | 1.09 |
| GTGCGCCGAA | 0.943 |
| CGGGAAACTT | 1.08 |
| CCTGGACGTA | 0.989 |
| ACATTCAAAT | 1.15 |
| ATGTAGAGTG | 0.969 |
| GGCTATAATT | 0.985 |
| CCGGAGTCCG | 1.1 |
| TACATACTGT | 1.4 |
| CGCTGGTCCG | 0.975 |
| CACGGAGTCT | 1.02 |
| GGTCAAGGC | 1.11 |
| ACGTGGGTAA | 1.01 |
| AATATTCTAC | 1.02 |
| TTAGCCGGCT | 0.983 |
| ATAGGAGCGG | 1.08 |
| GGGGTATCTA | 1 |

| Sequence | switch fluorescence ratio |
| --- | --- |
| CAATCTAAAC | 1.02 |
| CTCTCTGTCA | 1.15 |
| TAGCTACC | 1.07 |
| GCCGCATAAT | 1.78 |
| ATAACGGACA | 1.31 |
| TCTAGTGT | 0.98 |
| CGCCAATCCT | 1.34 |
| TTGACTTCCA | 1.15 |
| GTAGGAGGGT | 0.988 |
| GGTACCAAGA | 1.05 |
| AATTCCGCCC | 1.57 |
| GAATTGCTCC | 1.04 |
| TGGTTGCAT | 1.1 |
| GAATTGTGGC | 0.965 |
| GTGACTTCGT | 1.06 |
| GACTGTCCTC | 1.02 |
| GGCCCCATTT | 0.996 |
| TGGTCAATTA | 1.03 |
| AGTGTCTAGC | 0.98 |
| CAAGTCATTC | 1 |
| CGAGGCTACG | 1.13 |
| GGTCATTATG | 0.982 |
| CCTATGTAAT | 3.32 |
| AAAACTTTT | 0.95 |
| TTTTTTGTA | 1.03 |
| CCCTGTAAGG | 1.02 |

| Sequence | switch fluorescence ratio |
| --- | --- |
| TGGCAGCCTG | 1.02 |
| CCTTTGAGAC | 1.09 |
| GAAGTCGCTA | 1.03 |
| AAAAGCTCGC | 0.987 |
| AGAAACCCGC | 1.04 |
| TTTCTTGAGA | 1.01 |
| CCTTGTTAGC | 1.1 |
| GTCGTAACAT | 1.01 |
| GATGAGGACT | 1.01 |
| AGAGTAACTT | 0.953 |
| GATTTCTCAA | 0.995 |
| GCACTCCTCG | 1.1 |
| ACCATCGCCC | 1.08 |
| GCAGGATACA | 1.05 |
| CACCGGTGAC | 1.06 |
| GGGGCGAAGT | 0.985 |
| AGAGGTAGCG | 1.04 |
| CTAAACGTTC | 1.07 |
| TTTTCCCCAC | 2.16 |
| AAATTATATT | 1 |
| CGATTTAGTT | 1.03 |
| CGGCTACAAA | 1.01 |
| TATTTCTCG | 0.978 |
| TGGAGGAAAG | 1.04 |
| GGTGTTTTGT | 1.03 |
| GGCCAGGAAC | 1.02 |

| Sequence | switch fluorescence ratio |
| --- | --- |
| ATGGAGGAGT | 0.967 |
| CGGACCGGG | 0.972 |
| GATAGTTTCC | 1.09 |
| ACACGCTAAT | 1.26 |
| CCCCAAGCGA | 4.6 |
| CGGGTTGAGG | 1.01 |
| TTCCTGTATA | 0.975 |
| TTAGAGCAAC | 1.13 |
| AATCTGTGTT | 1.01 |
| TATAGTATGG | 0.978 |
| CGCTGTGTTT | 0.996 |
| CACGGGCAAA | 1.02 |
| AATCGTGTTA | 0.95 |
| AATGTAGTA | 1.04 |
| CTGGAGGGCT | 0.995 |
| TTGGGCGATC | 1.89 |
| GTAGGCCGAA | 0.961 |
| CGCGGCGTGA | 1.03 |
| TGTTCTCCAA | 1.01 |
| CAGTTGCACT | 0.982 |
| TTTACGCCTC | 1.1 |
| TTCTTATGCC | 0.978 |
| GGTGAGGTTT | 0.983 |
| CCTTTAAAGG | 0.998 |
| TGGGTTGGA | 1.01 |
| ATGTTGTGT | 1.04 |

| Sequence | switch fluorescence ratio |
| --- | --- |
| CGCGTGCCGT | 1.09 |
| CCTCGACAGA | 1.21 |
| GAGGCCAAGT | 0.979 |
| ACCGCGCAGT | 1.31 |
| GCAACGTCGC | 1.01 |
| ATTTACGCTG | 1.09 |
| TTCAAGGGAA | 0.981 |
| GTCCAAGTCG | 1.04 |
| TGCCCTGACA | 1.04 |
| GGTCGTCCGG | 1.01 |
| TAGTCTGTCA | 0.963 |
| TCCACAATTC | 2.61 |
| GGTATGAAAG | 1.03 |
| CTCTCATATA | 1.04 |
| CAGACTTGTG | 1 |
| TTTTGACGGC | 1.15 |
| GGCGCGGGTC | 0.985 |
| CACGTCTTTG | 1.01 |
| TTGGTGCATA | 1.01 |
| CAAAGTGTAC | 2.06 |
| GTGGAATAGG | 0.963 |
| TGGGACTCGG | 0.939 |
| GACAGTAGAG | 1.08 |

— the supplement of paper PMC10126150
